Experimental data: PMC12820563, “FoxP3 forms a head-to-head dimer in vivo and stabilizes its multimerization on adjacent microsatellites”
This is one part of the list.

What follows are sequences tested against T1, MBP-FoxP1dN (Mus musculus, UniProt P58462 326-579) (assay: PD-seq (MBP pull-down with sequencing); 20 mM Tris-HCl pH 7.5, 100 mM NaCl, 1.5 mM MgCl2, 0.4 uM protein, 0.1 uM dsDNA library, 30 min, room temperature, amylose pull-down; high values mean tight binding). Settings: protein: recombinant; tags: His6-MBP; chain copies: 2; dsDNA, one strand shown.
T1 sequence: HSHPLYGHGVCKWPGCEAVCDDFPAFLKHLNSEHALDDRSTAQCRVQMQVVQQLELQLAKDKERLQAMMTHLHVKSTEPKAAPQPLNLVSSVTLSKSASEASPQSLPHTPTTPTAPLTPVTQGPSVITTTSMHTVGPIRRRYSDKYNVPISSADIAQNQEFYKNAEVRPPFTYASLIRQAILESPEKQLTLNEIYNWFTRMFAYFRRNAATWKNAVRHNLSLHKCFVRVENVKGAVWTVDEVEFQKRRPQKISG
Summary of the method: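 Binding is reads-per-million enrichment of pull-down over input, with replicates pooled. It comes from 30 min room-temperature incubation in Tris pH 7.5 buffer with NaCl and MgCl2 of 0.4 µM His6-MBP-tagged, N-terminally truncated mouse FoxP3 or FoxP1 fragment from E. coli with 0.1 µM Klenow-filled degenerate double-stranded DNA library, followed by amylose resin capture, three washes and Illumina sequencing of the released DNA.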

Row | Sequence | binding signal
1 | GATGATTGTTCTCCCAGCTGATGAATTAGTACATTCGAGTAAACAAATTTTCCTAATCTTTCTGTTCAAGCGCCATCTAC | 1.16 RPM ratio (pull-down/input)
2 | GATGATTGTTCTCCCAGCTGATGAATTTAGCGGGTCGAGTAAACAAATTTTCCTAATCTTTCTGTTCAAGCGCCATCTAC | 0.81 RPM ratio (pull-down/input)
3 | GATGATTGTTCTCCCAGCTGATGAATTCTAGTCTTCGAGTAAACAAATTTTCCTAATCTTTCTGTTCAAGCGCCATCTAC | 0.776 RPM ratio (pull-down/input)
4 | GATGATTGTTCTCCCAGCTGATGAATTTTGTACGTCGAGTAAACAAATTTTCCTAATCTTTCTGTTCAAGCGCCATCTAC | 1.04 RPM ratio (pull-down/input)
5 | GATGATTGTTCTCCCAGCTGATGAATTATTGCATTCGAGTAAACAAATTTTCCTAATCTTTCTGTTCAAGCGCCATCTAC | 1.66 RPM ratio (pull-down/input)
6 | GATGATTGTTCTCCCAGCTGATGAATTTGATACCTCGAGTAAACAAATTTTCCTAATCTTTCTGTTCAAGCGCCATCTAC | 0.899 RPM ratio (pull-down/input)
7 | GATGATTGTTCTCCCAGCTGATGAATTTATTTGCTCGAGTAAACAAATTTTCCTAATCTTTCTGTTCAAGCGCCATCTAC | 1.69 RPM ratio (pull-down/input)
8 | GATGATTGTTCTCCCAGCTGATGAATTAGGTTAGTCGAGTAAACAAATTTTCCTAATCTTTCTGTTCAAGCGCCATCTAC | 0.893 RPM ratio (pull-down/input)
9 | GATGATTGTTCTCCCAGCTGATGAATTCCCTGCTTCGAGTAAACAAATTTTCCTAATCTTTCTGTTCAAGCGCCATCTAC | 0.847 RPM ratio (pull-down/input)
10 | GATGATTGTTCTCCCAGCTGATGAATTGAGGACATCGAGTAAACAAATTTTCCTAATCTTTCTGTTCAAGCGCCATCTAC | 0.975 RPM ratio (pull-down/input)
11 | GATGATTGTTCTCCCAGCTGATGAATTTCGACCGTCGAGTAAACAAATTTTCCTAATCTTTCTGTTCAAGCGCCATCTAC | 0.765 RPM ratio (pull-down/input)
12 | GATGATTGTTCTCCCAGCTGATGAATTACCCGGGTCGAGTAAACAAATTTTCCTAATCTTTCTGTTCAAGCGCCATCTAC | 0.856 RPM ratio (pull-down/input)
13 | GATGATTGTTCTCCCAGCTGATGAATTTGTGACCTCGAGTAAACAAATTTTCCTAATCTTTCTGTTCAAGCGCCATCTAC | 1.16 RPM ratio (pull-down/input)
14 | GATGATTGTTCTCCCAGCTGATGAATTAAGAAATTCGAGTAAACAAATTTTCCTAATCTTTCTGTTCAAGCGCCATCTAC | 0.875 RPM ratio (pull-down/input)
15 | GATGATTGTTCTCCCAGCTGATGAATTGTAAGTGTCGAGTAAACAAATTTTCCTAATCTTTCTGTTCAAGCGCCATCTAC | 1.09 RPM ratio (pull-down/input)
16 | GATGATTGTTCTCCCAGCTGATGAATTACAGGAGTCGAGTAAACAAATTTTCCTAATCTTTCTGTTCAAGCGCCATCTAC | 0.912 RPM ratio (pull-down/input)
17 | GATGATTGTTCTCCCAGCTGATGAATTGTAGACATCGAGTAAACAAATTTTCCTAATCTTTCTGTTCAAGCGCCATCTAC | 1.21 RPM ratio (pull-down/input)
18 | GATGATTGTTCTCCCAGCTGATGAATTGTGAGGCTCGAGTAAACAAATTTTCCTAATCTTTCTGTTCAAGCGCCATCTAC | 0.942 RPM ratio (pull-down/input)
19 | GATGATTGTTCTCCCAGCTGATGAATTCCCGGGTTCGAGTAAACAAATTTTCCTAATCTTTCTGTTCAAGCGCCATCTAC | 0.773 RPM ratio (pull-down/input)
20 | GATGATTGTTCTCCCAGCTGATGAATTATACTGCTCGAGTAAACAAATTTTCCTAATCTTTCTGTTCAAGCGCCATCTAC | 0.951 RPM ratio (pull-down/input)
21 | GATGATTGTTCTCCCAGCTGATGAATTAGTGAAATCGAGTAAACAAATTTTCCTAATCTTTCTGTTCAAGCGCCATCTAC | 1.1 RPM ratio (pull-down/input)

Row | Sequence | binding signal
22 | GATGATTGTTCTCCCAGCTGATGAATTAACTGCCTCGAGTAAACAAATTTTCCTAATCTTTCTGTTCAAGCGCCATCTAC | 0.969 RPM ratio (pull-down/input)
23 | GATGATTGTTCTCCCAGCTGATGAATTAAGACCCTCGAGTAAACAAATTTTCCTAATCTTTCTGTTCAAGCGCCATCTAC | 0.84 RPM ratio (pull-down/input)
24 | GATGATTGTTCTCCCAGCTGATGAATTCTTAGCTTCGAGTAAACAAATTTTCCTAATCTTTCTGTTCAAGCGCCATCTAC | 0.856 RPM ratio (pull-down/input)
25 | GATGATTGTTCTCCCAGCTGATGAATTGGCCAGTTCGAGTAAACAAATTTTCCTAATCTTTCTGTTCAAGCGCCATCTAC | 0.793 RPM ratio (pull-down/input)
26 | GATGATTGTTCTCCCAGCTGATGAATTCTGAGCCTCGAGTAAACAAATTTTCCTAATCTTTCTGTTCAAGCGCCATCTAC | 0.85 RPM ratio (pull-down/input)
27 | GATGATTGTTCTCCCAGCTGATGAATTAGGGGGATCGAGTAAACAAATTTTCCTAATCTTTCTGTTCAAGCGCCATCTAC | 0.885 RPM ratio (pull-down/input)
28 | GATGATTGTTCTCCCAGCTGATGAATTGCGGCCCTCGAGTAAACAAATTTTCCTAATCTTTCTGTTCAAGCGCCATCTAC | 0.949 RPM ratio (pull-down/input)
29 | GATGATTGTTCTCCCAGCTGATGAATTGTTTTTTTCGAGTAAACAAATTTTCCTAATCTTTCTGTTCAAGCGCCATCTAC | 2.25 RPM ratio (pull-down/input)
30 | GATGATTGTTCTCCCAGCTGATGAATTAAGGCTGTCGAGTAAACAAATTTTCCTAATCTTTCTGTTCAAGCGCCATCTAC | 0.84 RPM ratio (pull-down/input)
31 | GATGATTGTTCTCCCAGCTGATGAATTGCATGCTTCGAGTAAACAAATTTTCCTAATCTTTCTGTTCAAGCGCCATCTAC | 1.18 RPM ratio (pull-down/input)
32 | GATGATTGTTCTCCCAGCTGATGAATTAGTGCAGTCGAGTAAACAAATTTTCCTAATCTTTCTGTTCAAGCGCCATCTAC | 0.937 RPM ratio (pull-down/input)
33 | GATGATTGTTCTCCCAGCTGATGAATTTAGACAGTCGAGTAAACAAATTTTCCTAATCTTTCTGTTCAAGCGCCATCTAC | 1.02 RPM ratio (pull-down/input)
34 | GATGATTGTTCTCCCAGCTGATGAATTCATTTCATCGAGTAAACAAATTTTCCTAATCTTTCTGTTCAAGCGCCATCTAC | 0.9 RPM ratio (pull-down/input)
35 | GATGATTGTTCTCCCAGCTGATGAATTGACACCGTCGAGTAAACAAATTTTCCTAATCTTTCTGTTCAAGCGCCATCTAC | 1.14 RPM ratio (pull-down/input)
36 | GATGATTGTTCTCCCAGCTGATGAATTCTGTGGATCGAGTAAACAAATTTTCCTAATCTTTCTGTTCAAGCGCCATCTAC | 0.956 RPM ratio (pull-down/input)
37 | GATGATTGTTCTCCCAGCTGATGAATTGTCGCTGTCGAGTAAACAAATTTTCCTAATCTTTCTGTTCAAGCGCCATCTAC | 1.02 RPM ratio (pull-down/input)
38 | GATGATTGTTCTCCCAGCTGATGAATTCTCCGCATCGAGTAAACAAATTTTCCTAATCTTTCTGTTCAAGCGCCATCTAC | 1.08 RPM ratio (pull-down/input)
39 | GATGATTGTTCTCCCAGCTGATGAATTGGGGTACTCGAGTAAACAAATTTTCCTAATCTTTCTGTTCAAGCGCCATCTAC | 0.818 RPM ratio (pull-down/input)
40 | GATGATTGTTCTCCCAGCTGATGAATTTAGGCAGTCGAGTAAACAAATTTTCCTAATCTTTCTGTTCAAGCGCCATCTAC | 0.877 RPM ratio (pull-down/input)
41 | GATGATTGTTCTCCCAGCTGATGAATTCCAGCTGTCGAGTAAACAAATTTTCCTAATCTTTCTGTTCAAGCGCCATCTAC | 0.787 RPM ratio (pull-down/input)
42 | GATGATTGTTCTCCCAGCTGATGAATTTGCCTGCTCGAGTAAACAAATTTTCCTAATCTTTCTGTTCAAGCGCCATCTAC | 0.858 RPM ratio (pull-down/input)

Row | Sequence | binding signal
43 | GATGATTGTTCTCCCAGCTGATGAATTCAATAGCTCGAGTAAACAAATTTTCCTAATCTTTCTGTTCAAGCGCCATCTAC | 0.896 RPM ratio (pull-down/input)
44 | GATGATTGTTCTCCCAGCTGATGAATTAGTAGGTTCGAGTAAACAAATTTTCCTAATCTTTCTGTTCAAGCGCCATCTAC | 0.902 RPM ratio (pull-down/input)
45 | GATGATTGTTCTCCCAGCTGATGAATTTGTTTTGTCGAGTAAACAAATTTTCCTAATCTTTCTGTTCAAGCGCCATCTAC | 2.33 RPM ratio (pull-down/input)
46 | GATGATTGTTCTCCCAGCTGATGAATTTTGGTAGTCGAGTAAACAAATTTTCCTAATCTTTCTGTTCAAGCGCCATCTAC | 0.905 RPM ratio (pull-down/input)
47 | GATGATTGTTCTCCCAGCTGATGAATTCATCGTATCGAGTAAACAAATTTTCCTAATCTTTCTGTTCAAGCGCCATCTAC | 0.924 RPM ratio (pull-down/input)
48 | GATGATTGTTCTCCCAGCTGATGAATTTGAGCCCTCGAGTAAACAAATTTTCCTAATCTTTCTGTTCAAGCGCCATCTAC | 0.779 RPM ratio (pull-down/input)
49 | GATGATTGTTCTCCCAGCTGATGAATTACCCGTTTCGAGTAAACAAATTTTCCTAATCTTTCTGTTCAAGCGCCATCTAC | 1.03 RPM ratio (pull-down/input)
50 | GATGATTGTTCTCCCAGCTGATGAATTAGTTGCGTCGAGTAAACAAATTTTCCTAATCTTTCTGTTCAAGCGCCATCTAC | 1.28 RPM ratio (pull-down/input)
51 | GATGATTGTTCTCCCAGCTGATGAATTTTTCAACTCGAGTAAACAAATTTTCCTAATCTTTCTGTTCAAGCGCCATCTAC | 0.927 RPM ratio (pull-down/input)
52 | GATGATTGTTCTCCCAGCTGATGAATTCCCCCATTCGAGTAAACAAATTTTCCTAATCTTTCTGTTCAAGCGCCATCTAC | 0.876 RPM ratio (pull-down/input)
53 | GATGATTGTTCTCCCAGCTGATGAATTGCGACTATCGAGTAAACAAATTTTCCTAATCTTTCTGTTCAAGCGCCATCTAC | 1.19 RPM ratio (pull-down/input)
54 | GATGATTGTTCTCCCAGCTGATGAATTTCTGGGGTCGAGTAAACAAATTTTCCTAATCTTTCTGTTCAAGCGCCATCTAC | 0.783 RPM ratio (pull-down/input)
55 | GATGATTGTTCTCCCAGCTGATGAATTAGTCCTTTCGAGTAAACAAATTTTCCTAATCTTTCTGTTCAAGCGCCATCTAC | 0.908 RPM ratio (pull-down/input)
56 | GATGATTGTTCTCCCAGCTGATGAATTTGCGCGGTCGAGTAAACAAATTTTCCTAATCTTTCTGTTCAAGCGCCATCTAC | 0.902 RPM ratio (pull-down/input)
57 | GATGATTGTTCTCCCAGCTGATGAATTATCCTTTTCGAGTAAACAAATTTTCCTAATCTTTCTGTTCAAGCGCCATCTAC | 0.902 RPM ratio (pull-down/input)
58 | GATGATTGTTCTCCCAGCTGATGAATTGCAGCTCTCGAGTAAACAAATTTTCCTAATCTTTCTGTTCAAGCGCCATCTAC | 1.08 RPM ratio (pull-down/input)
59 | GATGATTGTTCTCCCAGCTGATGAATTCTGGCTGTCGAGTAAACAAATTTTCCTAATCTTTCTGTTCAAGCGCCATCTAC | 0.808 RPM ratio (pull-down/input)
60 | GATGATTGTTCTCCCAGCTGATGAATTGCTGGTTTCGAGTAAACAAATTTTCCTAATCTTTCTGTTCAAGCGCCATCTAC | 1.04 RPM ratio (pull-down/input)
61 | GATGATTGTTCTCCCAGCTGATGAATTAGGTATCTCGAGTAAACAAATTTTCCTAATCTTTCTGTTCAAGCGCCATCTAC | 0.964 RPM ratio (pull-down/input)
62 | GATGATTGTTCTCCCAGCTGATGAATTGAGAGTCTCGAGTAAACAAATTTTCCTAATCTTTCTGTTCAAGCGCCATCTAC | 0.741 RPM ratio (pull-down/input)
63 | GATGATTGTTCTCCCAGCTGATGAATTTCAGGAGTCGAGTAAACAAATTTTCCTAATCTTTCTGTTCAAGCGCCATCTAC | 0.764 RPM ratio (pull-down/input)
